Assay results from the supplement of paper PMC9446081.
In all, about 39,000 compounds went through this assay and about 220 (0.56%) showed activity. The list shows a part of the results.

tested on: Escherichia coli K-12 BW25113; assay: relative growth (OD600 normalised to plate interquartile mean) (fraction); higher = less growth inhibition, active = 0.2 or less; details: 50 µM; LB; incubation time: overnight (16-24 h)
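Note: static incubation at 37 °C against the wild-type strain, values averaged over two biological replicates.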

SMILES | relative growth
COc1ccccc1NC(=O)N(C)C[C@H]1Oc2ncc(C#CC(C)C)cc2C(=O)N([C@H](C)CO)C[C@H]1C | inactive: 1
COc1ccc(NC(=O)Nc2ccc3c(c2)C(=O)N([C@H](C)CO)C[C@@H](C)[C@H](CN(C)S(=O)(=O)c2ccc(C)cc2)OCCCC[C@H](C)O3)cc1 | inactive: 1.05
C[C@H]1CN([C@@H](C)CO)C(=O)Cc2cc(NC(=O)CCCN(C)C)ccc2O[C@H]1CN(C)Cc1ccc(Oc2ccccc2)cc1 | inactive: 0.909
Cc1ccc(S(=O)(=O)N[C@H]2CC[C@@H](CC(=O)NCc3ccc(Cl)c(Cl)c3)O[C@@H]2CO)cc1 | inactive: 0.961
COc1ccc(NC(=O)Nc2ccc3c(c2)C(=O)N([C@H](C)CO)C[C@H](C)[C@@H](CN(C)C(=O)Nc2ccc(C(F)(F)F)cc2)OCCCC[C@@H](C)O3)cc1 | inactive: 1.03
C[C@@H]1CN([C@H](C)CO)C(=O)c2cccc(NS(=O)(=O)c3cccs3)c2O[C@@H]1CN(C)S(=O)(=O)c1cccs1 | inactive: 0.993
C[C@@H]1CN([C@@H](C)CO)C(=O)c2cc(NC(=O)NC3CCCCC3)ccc2O[C@H]1CN(C)S(C)(=O)=O | inactive: 1
C[C@H]1CN([C@@H](C)CO)C(=O)Cc2cc(NC(=O)Nc3cccc4ccccc34)ccc2O[C@@H]1CN(C)Cc1ccc(Oc2ccccc2)cc1 | inactive: 1.02
C[C@@H]1CCCCO[C@@H](CN(C)Cc2ccc(C(F)(F)F)cc2)[C@H](C)CN([C@@H](C)CO)C(=O)c2cc(NC(=O)Nc3cccc4ccccc34)ccc2O1 | inactive: 1.01
C#CCOc1cccc2c1CCNC2=O | inactive: 0.96
Cc1cn(C[C@H](N)C(=O)O)c(=O)n(Cc2ccsc2C(=O)O)c1=O | inactive: 1
Cc1noc(C)c1S(=O)(=O)N(C)C[C@@H]1Oc2c(NC(=O)C3CCCCC3)cccc2C(=O)N([C@H](C)CO)C[C@@H]1C | inactive: 0.964
COCC#Cc1ccc2c(c1)O[C@@H](CN(C)C(=O)Nc1ccccc1F)[C@H](C)CN([C@H](C)CO)S2(=O)=O | inactive: 1
CCNC(=O)C[C@H]1C=C[C@@H](NC(=O)C2CC2)[C@H](CO)O1 | inactive: 0.982
C[C@@H]1CCCCO[C@@H](CN(C)CC2CCCCC2)[C@H](C)CN([C@@H](C)CO)C(=O)c2cc(NC(=O)Cc3ccccc3)ccc2O1 | inactive: 1.01
C[C@H]1CCCCO[C@@H](CN(C)Cc2ccccc2)[C@@H](C)CN([C@@H](C)CO)C(=O)c2cc(NS(=O)(=O)c3cccs3)ccc2O1 | inactive: 0.993
C[C@H](CO)N1C[C@H](C)[C@H](CN(C)C(=O)Nc2ccc(N3CCN(C)CC3)cc2)OCc2cnnn2CCCC1=O | inactive: 0.983
CCOC(=O)[C@H]1CNC(=S)N[C@@]1(C)O | inactive: 0.935
CN1C(=O)c2cc(NC(=O)c3cnccn3)ccc2OC[C@@H]2O[C@H](CC(=O)NCC3CCCCC3)CC[C@H]21 | inactive: 0.993
CC(=O)NCC(=O)N1Cc2nccn2C[C@H](Cn2nc(C)nc2C)C1 | inactive: 0.995
C[C@@H]1CN([C@@H](C)CO)C(=O)c2cc(NC(=O)Cn3cnnn3)ccc2O[C@@H]1CN(C)S(=O)(=O)c1ccc(F)cc1 | inactive: 1.04

SMILES | relative growth
I.[KH] | inactive: 1
COc1ccc(NC(=O)Nc2ccc3c(c2)C(=O)N([C@H](C)CO)C[C@H](C)[C@H](CN(C)C(=O)Nc2ccc(OC)cc2)OCCCC[C@@H](C)O3)cc1 | inactive: 1.01
Oc1cc(O)c2c(c1)OC(c1cc(O)c(O)c(O)c1)C(O)C2 (stereo unspecified) | inactive: 1.03
COc1ccc(S(=O)(=O)Nc2ccc3c(c2)C(=O)N([C@@H](C)CO)C[C@@H](C)[C@H](CN(C)S(=O)(=O)c2ccc(OC)cc2)O3)cc1 | inactive: 1.03
COc1ccccc1-c1ccc2c(c1)O[C@H](CN(C)S(=O)(=O)c1ccccc1)[C@@H](C)CN([C@H](C)CO)S2(=O)=O | inactive: 1.05
Cn1nccc1-c1cccc(CN)c1 | inactive: 1.01
Cc1ccc(S(=O)(=O)Nc2ccc3c(c2)C(=O)N([C@@H](C)CO)C[C@H](C)[C@@H](CN(C)Cc2ccc(C(=O)O)cc2)OCCCC[C@H](C)O3)cc1 | inactive: 1.03
COc1ccc(S(=O)(=O)Nc2ccc3c(c2)CC(=O)N([C@H](C)CO)C[C@H](C)[C@H](CN(C)S(=O)(=O)c2ccc(C)cc2)O3)cc1 | inactive: 1.03
C[C@H](CO)N1C[C@H](C)[C@H](CN(C)Cc2ccc(Oc3ccccc3)cc2)Oc2c(NC(=O)Nc3ccc(F)cc3)cccc2C1=O | inactive: 0.947
Cc1ccc(OC(=O)N(C)C[C@H]2OCc3ccccc3-c3ccccc3C(=O)N([C@@H](C)CO)C[C@@H]2C)cc1 | inactive: 0.993
C[C@@H]1CN([C@@H](C)CO)C(=O)c2cc(NS(=O)(=O)c3ccc(F)cc3)ccc2O[C@@H](C)CCCCO[C@H]1CN(C)C(=O)c1ccccc1 | inactive: 1.02
O=C(NC[C@H]1Cn2nncc2CO1)c1ccc[nH]1 | inactive: 1.02
O=C(O)C[C@H]1CC[C@H]2[C@@H](COC[C@@H](O)CN2S(=O)(=O)c2ccc(F)cc2)O1 | inactive: 0.952
CC(C)n1nnc(CC(=O)NN)n1 | inactive: 0.977
COc1cc(-c2coc3cc(OCc4ccccc4)c(OC)c(O)c3c2=O)cc(OCc2ccccc2)c1OC | inactive: 1.05
NC1CCCCC1N.O=C1[O][Pt][O]C1=O (stereo unspecified) | inactive: 0.993
COc1ccc(NC(=O)N(C)C[C@@H]2Oc3c(NC(=O)Nc4ccc(C(F)(F)F)cc4)cccc3C(=O)N([C@H](C)CO)C[C@@H]2C)cc1 | inactive: 0.955
C[C@H]1CN([C@@H](C)CO)C(=O)CCCn2cc(nn2)CO[C@@H]1CN(C)S(=O)(=O)c1ccc(-c2ccccc2)cc1 | inactive: 0.985
O=C(C[C@@H]1CC[C@@H]2[C@H](COC[C@@H](O)CN2S(=O)(=O)c2cccc(Cl)c2)O1)NCc1ccncn1 | inactive: 0.991
COc1ccc(S(=O)(=O)N(C)C[C@@H]2Oc3cc(C#CC4CC4)ccc3S(=O)(=O)N([C@@H](C)CO)C[C@H]2C)cc1 | inactive: 0.998
